Assay results taken from PubChem BioAssay AID1768 (National Center for Advancing Translational Sciences (NCATS), 2009).
Where “and” joins values, the source holds several entries; their conditions need not be identical. Identical values can stand only once. The campaign covered roughly 270,000 compounds. About 620 (0.23%) were called active. The inconclusive results got no clear call from the source; some entries with a clear call stand among them for comparison. The call rests on the fitted dose curve; in most records, active means well fitted inhibition curve with a large enough effect in the polarisation, with a control signal flat (not every such curve was filed as active); inconclusive means small, poorly fitted or top-dose-only effect, or effect the other way, or a change in a side signal; inactive means no such curve, though single readings can be large or run the other way; the % refers to the polarisation. Potencies of inconclusive entries are doubtful fits and often do not repeat. A note “side channel” means that the fit belongs to a control or component signal, not to the main read-out.

Each compound was assayed against Menin (Homo sapiens) (UniProt O00255) (assay: qHTS Assay for Inhibitors Targeting the Menin-MLL Interaction in MLL Related Leukemias: Competition With Texas Red Labeled MLL-derived Mutant Peptide). Conditions: fluorescence polarization; series mostly up to 61.6 µM.
Potency means the concentration at half of the fitted maximal effect; tags describe the fitted curve by direction and shape or compound fluorescence and quenching.

UniProt O00255, sequence (O00255 whole entry, looked up): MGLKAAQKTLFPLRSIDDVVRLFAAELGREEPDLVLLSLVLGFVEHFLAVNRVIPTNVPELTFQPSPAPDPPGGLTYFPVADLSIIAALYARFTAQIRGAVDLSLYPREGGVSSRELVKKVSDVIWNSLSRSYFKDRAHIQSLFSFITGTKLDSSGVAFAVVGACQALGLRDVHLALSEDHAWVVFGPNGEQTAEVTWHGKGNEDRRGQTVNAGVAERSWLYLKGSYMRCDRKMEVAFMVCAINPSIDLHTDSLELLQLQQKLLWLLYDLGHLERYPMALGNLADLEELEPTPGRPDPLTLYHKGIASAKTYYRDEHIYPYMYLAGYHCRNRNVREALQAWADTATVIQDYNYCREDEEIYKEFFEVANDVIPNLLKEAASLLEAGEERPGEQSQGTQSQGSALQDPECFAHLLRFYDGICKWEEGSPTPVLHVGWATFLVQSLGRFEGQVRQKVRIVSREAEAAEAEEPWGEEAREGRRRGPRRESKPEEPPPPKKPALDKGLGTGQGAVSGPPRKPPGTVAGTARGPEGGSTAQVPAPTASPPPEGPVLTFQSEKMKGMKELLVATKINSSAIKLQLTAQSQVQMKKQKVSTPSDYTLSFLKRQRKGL

Compound	Potency
Fc1ccc(Nc2ccnc(-c3ccc4c(c3)OCO4)n2)cc1	inconclusive: 14.1 µM [quencher, side channel, partial curve]
CCOC(=O)N1C(=O)[C@](c2ccc(Cl)cc2)(C(C)C)N1C(=O)OCC	inactive
CCN1CCN(C2=NC(=O)/C(=C/c3ccc(C)o3)S2)CC1	inconclusive: 28.2 µM [fluorescent, side channel, single point]
O=C(CCNC(=O)Cn1cnc2ccccc2c1=O)NCC1CCCO1 (stereo unspecified)	inactive
CCCc1[nH]c(=O)c(C#N)c2c1COC(C)(C)C2	inactive
Oc1cc2c(cc1O)C1c3ccc(O)c(O)c3OCC1(O)C2 (stereo unspecified)	inactive and inconclusive: 39.8 µM [fluorescent, partial curve, poor fit]
O=C(/C=C/c1cccs1)NC(=S)NNC(=O)c1ccccc1O	inconclusive: 25.1 µM [quencher, partial curve]
CC(=O)C(C(C)=O)c1cc(NS(=O)(=O)c2ccccc2)ccc1NS(=O)(=O)c1ccccc1	inconclusive: 25.1 µM [quencher, side channel, single point]
O=C(COC(=O)Cn1cnc2ccccc21)Nc1cc2c(cc1Cl)C(=O)c1ccccc1C2=O	inconclusive: 10 µM [quencher, side channel, partial curve]
COc1cc(/C=C2/C(=N)N3C(SC)=NSC3=NC2=O)ccc1OC(=O)c1ccco1	inconclusive: 28.2 µM [quencher, side channel, single point]
CN(c1cccc(NC(=O)Nc2cccc(Cl)c2)c1)S(C)(=O)=O	inconclusive: 35.5 µM [quencher, side channel, single point]
O=C(COC(=O)c1ccncc1)Nc1cc(Cl)c(Cl)cc1Cl	inconclusive: 31.6 µM [quencher, side channel, single point]
Cc1c(CC(=O)N2CCN(C(=O)C3COc4ccccc4O3)CC2)c(=O)oc2cc(O)cc(O)c12 (stereo unspecified)	inconclusive: 31.6 µM [quencher, side channel, single point]
COc1ccc(OC)c(C2=Nn3c(nnc3-c3ccc(OC)c(OC)c3)SC2)c1	inactive
CN(CCCC(=O)N1CCCC(C(N)=O)C1)S(=O)(=O)c1ccc(F)cc1 (stereo unspecified)	inconclusive: 3.16 µM [inhibitor, partial curve]
Cc1ccccc1N1CCN(S(=O)(=O)CC23CCC(CC2=O)C3(C)C)CC1 (stereo unspecified)	inconclusive: 15.8 µM [fluorescent, side channel, partial curve]
